# Source: paper PMC10323441
# Sequences of proteins named here, by UniProt entry; tags and fusion partners are left off. A change or cut given only in a name is not applied to a line headed by its entry.
# UniProt Q12798: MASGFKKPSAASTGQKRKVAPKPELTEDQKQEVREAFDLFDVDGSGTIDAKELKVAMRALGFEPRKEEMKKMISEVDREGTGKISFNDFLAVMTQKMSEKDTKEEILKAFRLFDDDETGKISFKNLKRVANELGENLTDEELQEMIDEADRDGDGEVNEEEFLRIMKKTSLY
# UniProt O75838: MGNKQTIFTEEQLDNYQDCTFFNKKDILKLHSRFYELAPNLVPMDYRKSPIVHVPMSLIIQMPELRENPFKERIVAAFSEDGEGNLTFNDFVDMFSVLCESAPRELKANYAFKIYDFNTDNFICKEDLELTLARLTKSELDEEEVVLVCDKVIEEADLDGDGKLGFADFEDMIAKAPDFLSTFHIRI
# These are yes or no findings as the source states them, for the method shown. Binding seen in cells or lysates may run through a third protein. Some entries that bind do so weakly or less than the wild type. For some of these results: Sequences can lack the tags named with a protein.
# Experiments:
# [1] = target: T1, FLAG-myc-tagged CCT3 (human (from the printed UniProt entry)) (UniProt P49368); test: co-IP; anti-FLAG M2 beads hold FLAG-myc-CCT3; lysates of co-expressing HEK293T cells in TAP lysis buffer; 1 h at 4°C; Western blot with antibodies against FLAG and HA
# T1 sequence: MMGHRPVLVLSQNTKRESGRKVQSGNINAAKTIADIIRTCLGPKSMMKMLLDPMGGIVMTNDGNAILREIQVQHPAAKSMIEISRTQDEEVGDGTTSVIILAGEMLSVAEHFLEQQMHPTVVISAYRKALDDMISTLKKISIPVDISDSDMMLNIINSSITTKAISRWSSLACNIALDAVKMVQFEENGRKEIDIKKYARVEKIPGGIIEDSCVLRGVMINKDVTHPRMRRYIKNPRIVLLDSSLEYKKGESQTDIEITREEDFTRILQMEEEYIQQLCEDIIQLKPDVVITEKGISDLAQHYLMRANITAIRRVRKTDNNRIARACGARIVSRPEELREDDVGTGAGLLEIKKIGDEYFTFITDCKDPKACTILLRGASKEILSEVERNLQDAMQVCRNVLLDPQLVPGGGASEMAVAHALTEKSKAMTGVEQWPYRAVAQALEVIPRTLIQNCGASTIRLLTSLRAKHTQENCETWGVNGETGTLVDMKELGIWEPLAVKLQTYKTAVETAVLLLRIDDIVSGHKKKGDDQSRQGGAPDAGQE
# [2] = target: T2, 3xHA-tagged C-terminal fragment of ADGRV1 (3xHA-ADGRV1_CTF) (human) (UniProt Q8WXG9); test: co-IP; reciprocal: anti-HA agarose beads hold the 3xHA-tagged protein; lysates of co-expressing HEK293T cells; Western blot
# T2 sequence: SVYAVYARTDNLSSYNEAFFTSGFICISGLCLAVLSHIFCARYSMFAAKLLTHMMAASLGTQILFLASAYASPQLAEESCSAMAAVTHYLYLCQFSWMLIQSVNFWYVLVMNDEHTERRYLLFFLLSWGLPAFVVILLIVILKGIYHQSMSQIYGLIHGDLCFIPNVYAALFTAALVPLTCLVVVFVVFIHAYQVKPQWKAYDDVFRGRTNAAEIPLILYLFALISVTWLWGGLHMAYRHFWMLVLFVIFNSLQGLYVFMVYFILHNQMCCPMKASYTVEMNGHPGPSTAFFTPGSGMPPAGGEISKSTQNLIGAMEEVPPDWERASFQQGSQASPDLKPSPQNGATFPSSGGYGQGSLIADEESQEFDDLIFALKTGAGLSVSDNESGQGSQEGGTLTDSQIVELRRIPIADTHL
# RFP-tagged centrin 1 = RFP-tagged centrin 1 (UniProt Q12798); test: co-IP; RFP-Trap agarose beads; lysates of co-transfected HEK293T cells (RFP-tagged protein or RFP alone with HA- or SF-tagged protein); 10 mM Tris-Cl pH 7.5, 150 mM NaCl, 0.5 mM EDTA; 2 h at 4°C; Western blot
Substance,binding (RFP-tagged centrin 1),further results
3xHA-tagged centrin 1 (from UniProt Q12798 1-172),–,binding [1]: no binding
RFP-tagged CIB2 (mRFP-CIB2) (from UniProt O75838 1-187),–,binding [2]: binds
Strep II-FLAG (SF)-tagged CIB2 isoform 1 (from UniProt O75838-1 1-187),no binding,–
Strep-II-FLAG (SF)-tagged ADGRV1a (from UniProt Q8WXG9-1 4340-6306) (receptor),no binding,–
